Hit rate of the full screen: of about 52,000 compounds, about 1,700 (3.3%) were called active. Cut-off read from the data, not from the text of the source: active = survival mostly below about 52% (no sharp cut-off); inactive = mostly above about 56%. This is one part of the list.
The compounds below were run on Wild type (assay: S. aureus survival, RN4220 and DeltatarO strains – OD600, teichoic acid synthesis inhibitors, primary screen (AID 463173)). Conditions: S. aureus RN4220 wild type/DeltatarO growth, OD600, 18 h, hits give low values, screened at 18.75 µg/mL (by protocol).

| Compound | survival |
| --- | --- |
| COC(=O)CCc1csc(N)n1 | inactive: 98% |
| COc1cccc(NC(=O)Cn2c(=O)n(-c3ccc(C)cc3)c(=O)c3ccc(C(=O)NCc4ccco4)cc32)c1 | inactive: 77% |
| CCC(Sc1nncn2c1cc1oc(C)cc12)C(=O)Nc1ccc(F)cc1 (configuration not stated) | inactive: 73% |
| CCc1cccc(NC(=O)C(c2ccccc2)N2Cc3ccccc3C2=O)c1 (configuration not stated) | inactive: 72% |
| CCOCc1ccccc1Nc1ncnc2onc(-c3ccc(Cl)cc3)c12 | inactive: 125% |
| COc1cc(C)c(C)cc1S(=O)(=O)Nc1cccc(-c2ccc(N3CCOCC3)nn2)c1 | inactive: 85% |
| COc1ccc(CCNC(=O)C(=O)NCC(c2ccco2)S(=O)(=O)c2ccc(F)cc2)cc1 (configuration not stated) | inactive: 72% |
| COCCn1c(=N)c(C(=O)NC(C)c2ccccc2)cc2c(=O)n3cc(C)ccc3nc21 (configuration not stated) | inactive: 79% |
| CC(C)(C)OC(=O)N1CCC(c2c(C(=O)NCCN3CCC(Cc4ccccc4)CC3)cnn2-c2ccc(F)cc2)CC1 | inactive: 60% |
| CCC(C)NC(=O)CCc1c(C)nc2nc(-c3cc(OC)cc(OC)c3)nn2c1C (configuration not stated) | inactive: 80% |
| Cc1ccc(NC(=O)[C@@H](c2ccccc2)N2Cc3ccccc3C2=O)cc1 | inactive: 59% |
| Cc1cccc(N2CCN(S(=O)(=O)c3cc(C(=O)Nc4ccccc4Cl)ccc3F)CC2)c1C | inactive: 84% |
| CCc1ccccc1NC(=O)CSc1nnc2ccc3ccccc3n12 | inactive: 80% |
| COC(=O)c1cc2oc3ccccc3c2n1Cc1nc(-c2ccccc2C)oc1C | inactive: 121% |
| O=C(CSCc1cc(=O)c2cc(F)ccc2[nH]1)Nc1ccccc1Cl | inactive: 70% |
| COc1ccc(OC)c(CCNc2nc3ccccc3c3nc(-c4cccnc4)nn23)c1 | inactive: 127% |
| Brc1ccc(-n2nc(-c3ccccc3)c3cnc4cc5c(cc4c32)OCO5)cc1 | inactive: 112% |
| CCC(C)(C)n1nnnc1C(c1ccccc1)N1CCc2ccccc2C1 (configuration not stated) | inactive: 107% |
| Cc1ccc2[nH]c(CSc3nnc(NC(=O)c4ccc(Cl)cc4)s3)cc(=O)c2c1 | inactive: 71% |
| CCCN(CCC)C(=O)c1c2c(nc3ccccc13)C(=O)N(C1CCCCC1)C2 | inactive: 75% |
| Cc1cc(S(=O)(=O)C(CNC(=O)COc2ccc(Cl)cc2)c2cccs2)ccc1F (configuration not stated) | inactive: 120% |
| Cc1ccc(CCNC(=O)C2CCN(Cc3nc(-c4ccccc4C)oc3C)CC2)cc1 | inactive: 122% |

| Compound | survival |
| --- | --- |
| CCc1ccc(OCC2c3cc(OC)c(OC)cc3CCN2C(=O)COc2ccccc2)cc1 (configuration not stated) | inactive: 77% |
| CCCN(C(=O)c1coc(=O)c2ccccc12)c1ccccc1C | inactive: 75% |
| Cc1ccc(N2C(=O)CSC23C(=O)N(CC(=O)Nc2ccc(C(C)C)cc2)c2ccccc23)cc1C (configuration not stated) | inactive: 80% |
| CCOc1ccc(NC(=O)Cn2cc(C(=O)c3ccco3)c3ccccc32)cc1 | inactive: 50% |
| CCOc1ccc(CCNC(=O)c2cc3c(-c4ccc(OC)c(OC)c4)nn(C)c3s2)cc1OCC | inactive: 83% |
| COc1ccc(NC(=O)CSc2nc(NS(=O)(=O)c3ccccc3)cc(=O)[nH]2)cc1 | inactive: 114% |
| CCn1c(=O)cc(OCC(=O)Nc2cc(Cl)c(OC)cc2OC)c2ccccc21 | inactive: 72% |
| COc1ccc(-n2nc(C(=O)Nc3cccc(C)n3)c3c4ccccc4n(C)c3c2=O)cc1Cl | inactive: 79% |
| O=C(Nc1cccnc1Cl)c1cc(-c2cccc(Cl)c2)on1 | inactive: 94% |
| CCOc1ccc(CCNC(=O)CCc2cn(Cc3ccc(F)cc3)c3ccccc23)cc1 | inactive: 87% |
| COc1cccc(NC(=O)C(Cc2ccccc2)NS(=O)(=O)c2ccc3c(c2)oc(=O)n3C)c1 (configuration not stated) | inactive: 123% |
| Cc1coc2cc3oc(=O)c(CC(=O)NCCc4ccccc4)c(C)c3cc12 | inactive: 85% |
| Cc1ccc(C)c(CN2C(=O)c3ccccc3S(=O)(=O)c3ccc(C(=O)N4CCCCC4)cc32)c1 | inactive: 81% |
| CC(C)n1c(=N)c(C(=O)NCc2ccccc2)cc2c(=O)n3ccccc3nc21 | inactive: 94% |
| COc1cc(NC(=O)c2cc(S(=O)(=O)N3CCc4ccccc43)cn2C)cc(OC)c1OC | inactive: 82% |
| CC(=O)c1cccc(NC(=O)c2noc3c2CCCC3)c1 | inactive: 136% |
| CCc1ccccc1N(C)C(=O)c1cc2c(=O)oc3ccccc3c2s1 | inactive: 66% |
| COc1ccc(OC)c(NC(=O)c2cnn(-c3ccc(C)cc3)c2C2CCNCC2)c1 | inactive: 101% |
| CC(C)CC(=O)Nc1c(C(=O)N2CCN(c3ccccc3)CC2)oc2ccccc12 | inactive: 96% |
| O=C(C1CCC1)N1CCc2cc(S(=O)(=O)NCc3ccc(F)cc3)ccc21 | inactive: 79% |
| COc1ccc(C)cc1NC(=O)N1CCCn2nc(C)cc21 | inactive: 75% |
| O=C(COc1ccccc1[N+](=O)[O-])N(Cc1ccco1)c1ccccn1 | inactive: 82% |

| Compound | survival |
| --- | --- |
| COc1cc2c(=O)n(CCc3ccccc3)c(=O)n(CC(=O)Nc3ccccc3)c2cc1OC | inactive: 120% |
| Cc1ccc(-c2c(C#N)c(SCC(=O)c3ccc(F)cc3)nc3c2CCCC3)o1 | inactive: 111% |
| COc1ccc(OC)c(NC(=O)/C=C/c2ccc(C)o2)c1 | inactive: 65% |
| CCOc1ccccc1NC(=O)Cn1c(=O)n(-c2cccc(C)c2)c(=O)c2c1c1cc(OC)ccc1n2C | inactive: 76% |
| COC(=O)c1ccccc1NC(=O)N1CCc2c(sc3c2CCCC3)C1c1ccc(F)cc1 (configuration not stated) | inactive: 128% |
| O=C(COc1ccccc1)NC1CC(=O)N(c2ccc3c(c2)OCCO3)C1 (configuration not stated) | inactive: 74% |
| O=C(Cn1c(=O)n(CC2CCC(C(=O)NCCc3ccccc3)CC2)c(=O)c2ccccc21)Nc1cccc(F)c1 (configuration not stated) | inactive: 94% |
| COc1ccc(C2C=C(c3ccccc3)Nc3nc(NS(=O)(=O)c4ccc(Cl)cc4)nn32)cc1 (configuration not stated) | active: 0% |
| COc1ccc(C(=O)Cn2c(=O)c(-c3cc(C)ccc3NC(C)=O)nc3ccccc32)cc1 | inactive: 89% |
| CC(=O)c1cc2c(cc1N/C(=N/S(=O)(=O)c1ccc(Br)cc1)c1ccccc1)OCO2 | inactive: 69% |
| Cc1ccccc1Cn1c(CN2CCCC(C)C2)nc2c1c(=O)n(C)c(=O)n2C (configuration not stated) | inactive: 81% |
| O=C(Nc1ccc(S(=O)(=O)Nc2cccc(C(F)(F)F)c2)cc1)c1ccco1 | inactive: 114% |
| CCOc1ccc(C(=O)c2cn(CC(=O)Nc3ccc(Cl)cc3)c3cc4c(cc3c2=O)OCCO4)cc1 | inactive: 143% |
| CCc1cccc(C)c1NC(=O)c1cccc(C(=O)Nc2c(C)cccc2CC)c1 | inactive: 78% |
| Cc1ccc(C)c(N2CCN(C(=O)c3noc4c3CCCCC4)CC2)c1 | inactive: 124% |
| O=C(O)c1ccc2nccnc2c1 | inactive: 110% |
| CCOc1ccc(C(=O)c2cn(CC(=O)Nc3ccc(F)c(F)c3)c3cc4c(cc3c2=O)OCCO4)cc1 | inactive: 126% |
| CCS/C(=C(\C#N)C(N)=O)c1ccc(-c2ccccc2)[nH]1 | inactive: 114% |
| COc1cccc(NC(=O)CCc2nc(-c3cccs3)no2)c1 | inactive: 70% |
| CSc1ncc(Cl)c(C(=O)Nc2c(C(=O)c3ccc(C)c(F)c3)oc3ccccc23)n1 | inactive: 88% |
| CCC1CCCCN1C(=O)c1cc(Cl)ccc1OC (configuration not stated) | inactive: 112% |
| CCOc1ccc(C2C(=O)N(C3CCCCC3)CC(=O)N2CCC2=CCCCC2)cc1OC (configuration not stated) | inactive: 112% |

| Compound | survival |
| --- | --- |
| Cn1c(=O)c(C2=NS(=O)(=O)c3ccccc3N2)c(O)c2ccccc21 | inactive: 107% |
| Cc1cc2[nH]c(=O)c(=O)[nH]c2cc1S(=O)(=O)Nc1ccc(OC(F)(F)F)cc1 | inactive: 60% |
| COc1cccc(CNC(=O)C(Cc2ccccc2)NS(=O)(=O)c2ccc3c(c2)oc(=O)n3C)c1 (configuration not stated) | inactive: 84% |
| Cc1cccc(OC(=O)c2cc(-c3ccc4c(c3)OCCO4)on2)c1C | active: -6% |
| Cc1cccc(NC(=O)c2ccc3nc(CCc4ccccc4)oc3c2)c1C | inactive: 88% |
| Cc1cccc(N2CCN(c3ccc(NC(=O)c4ccccc4)cc3C(=O)O)CC2C)c1 (configuration not stated) | inactive: 55% |
| Cc1ncc(CO)c2c1Oc1nc(-c3ccc(F)cc3)nc(SCc3ccc(F)cc3Cl)c1C2 | inactive: 89% |
| O=C(NCc1ccc(F)cc1)c1ccc2c(c1)nc1n2CCCCC1 | inactive: 89% |
| CCOc1ccccc1C(=O)Nc1ccc2nc3c(c(Nc4ccc(OC)c(OC)c4)c2c1)CCCC3 | inactive: 73% |
| CCOC(=O)c1ccc(NC(=O)CN2Cc3ccccc3C2=O)cc1 | inactive: 83% |
| COc1ccccc1C(=O)Nc1onc2c1CCCC2 | inactive: 70% |
| Cc1cc(Nc2cccc(Cl)c2)nc2ccc(NC(=O)c3cccc(N(C)C)c3)cc12 | inactive: 124% |
| CCCS(=O)(=O)N1CCC(N2CCN(Cc3ccc(F)cc3)C(=O)C2=O)CC1 | inactive: 72% |
| Cc1cc(O)c2c(C)c(CC(=O)N3CCCCC3)c(=O)oc2c1 | inactive: 90% |
| COc1ccc(-c2noc(-c3nnn(-c4ccc(C(C)C)cc4)c3C)n2)cc1OC | inactive: 76% |
| Cc1ccc(-c2ccc(C#N)c(=O)n2CC(=O)N2CCNC(=O)C2(C)C)cc1 | inactive: 117% |
| O=C(Nc1ccccc1)c1ccc2c(O)c(S(=O)(=O)c3ccc(Cl)cc3)c(=O)[nH]c2c1 | inactive: 96% |
| O=C(CSc1ncccn1)n1c2c(c3ccccc31)CCCC2 | inactive: 112% |
| CCOc1ccccc1C1C(C(=O)Nc2ccccc2)=C(C)Nc2c(C(=O)Nc3ccc(F)cc3)cnn21 (configuration not stated) | inactive: 77% |
| CCn1cc(C(=O)N2CCN(c3ccc(OC)cc3)CC2)c2cc(OC)c(OC)cc2c1=O | inactive: 69% |
| Cc1ccccc1Cn1c2ccccc2c2cnn(CC(=O)N3CCC(C)CC3)c(=O)c21 | active: 12% |
